According to PubChem BioAssay (NCATS):
“And” between values parts separate entries of the source, which are not always exact repeats. Equal values may be shown once. Inconclusive means that the source gave no clear call. Such entries were picked first, then a sample of the others. For some assays here: Potencies of inconclusive entries are doubtful fits and often do not repeat. For some assays here: “Side channel” marks fits to a control or component signal instead of the main read-out. The source made the active and inactive calls. Unless noted, calls come from the whole dose curve; as a rule, active = well fitted curve in the direction sought with a large enough effect; inconclusive = small, poorly fitted or top-dose-only effect, or another doubt; inactive = no such curve, though single readings can be large; an effect the other way counts as inactive or inconclusive.

What was measured:
[1] = Cell Viability - NIH 3T3 (AID 541); conditions: NIH 3T3 cell viability, qHTS; activity change, negative = cytotoxicity: at 92.2 µM (top of the series);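 note: cells exposed to compound for 40 hours; plate controls were DMSO alone for no effect and tamoxifen positive control for full effect; nearly all actives have a fitted effect of over 25% in size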
How it was run: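 Intracellular ATP (CellTiter-Glo luminescence, 20 min at room temperature) measured after 40 hr compound exposure at 37 °C of 1000 NIH 3T3 mouse fibroblasts/well in complete medium; AC50 derived by Hill-equation modelling of qHTS concentration-response curves.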

[2] = MultiTox-Fluor Cytotoxicity Assay - LYMP1-001 - Live Cells (AID 947); note: potency is the fitted concentration of half-maximal effect
[3] = Cell Viability - LYMP2-005 (AID 967);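 note: plate controls were DMSO only for no effect and 92 µM tetraoctylammonium bromide control for full effect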
How it was run: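 CellTiter-Glo luminescence (cellular ATP) read-out; LYMP2-005 lymphoblastoid cells, 2500/well, 5 h pre-incubation, then 24 h compound exposure at 37 C in complete medium. Tetraoctylammonium bromide positive control; AC50 by standard Hill fit.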

[4] = Cell Viability - SH-SY5Y (AID 544); conditions: SH-SY5Y neuroblastoma cell viability; at 92.2 µM (top of the series);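 note: cells exposed to compound for 40 hours; 0% = DMSO alone and -100% = 100 µM tamoxifen; nearly all actives have a fitted effect of over 55% in size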
How it was run: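 Cytotoxicity measured via ATP-dependent luciferase luminescence (CellTiter-Glo) following 40 h, 37 °C exposure of 1500 SH-SY5Y cells per well. Concentration-response data were fitted with the standard Hill equation to give AC50.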

[5] = Cellular Toxicity (caspase-3) NIH 3T3 (AID 666);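 note: caspase signal read after 16 h compound exposure; 0% = DMSO basal and 100% = 100 µM tamoxifen stimulation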
How it was run: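 Caspase-Glo 3/7 luminescence reported caspase activation in 1000 NIH 3T3 cells/well after 16 h compound exposure at 37 C. DMSO set basal and 100 uM tamoxifen set 100% stimulation; concentration-response modeled with the Hill equation for AC50.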

[6] = molecular target: Cytochrome P450 3A4 (Homo sapiens) (UniProt P08684); experiment: qHTS Assay for Activators of Cytochrome P450 3A4 (AID 885); note: potency is the fitted concentration of half-maximal effect; nearly all actives have a fitted effect of over 65% in size
How it was run: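 Luminescent readout of luciferin formed from 25 uM Luciferin-PPXE (KM level) by 20 nM CYP3A4 in 200 mM KPO4, with 60 min NADPH-driven reaction at room temperature after 10 min compound exposure. Ketoconazole (57 uM) defined 100% inhibition.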

[7] = MultiTox-Fluor Cytotoxicity Assay - LYMP1-002 - Dead Cells (AID 960); conditions: LYMP1-002 lymphoblastoid cells, dead-cell protease fluorescence; cytotoxicity (dead cells): at 46.1 µM (top of the series); note: nearly all actives have a fitted effect of over 60% in size; note: potency is the fitted concentration of half-maximal effect;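 for cytotoxicity (dead cells): 0% = DMSO and 100% = tetraoctylammonium bromide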
How it was run: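 Dead-cell fluorescence (Ex/Em 485/520) after 16 h compound exposure at 37 C of LYMP1-002 lymphoblastoid cells in complete medium; AC50 by Hill equation, with data scaled between DMSO and 15 uM tetraoctylammonium bromide.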

[8] = Cell Viability - LYMP2-011 (AID 969);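 note: 0% = DMSO only and full inhibition = 92 µM tetraoctylammonium bromide; nearly all actives have a fitted effect of over 60% in size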
How it was run: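 Cytotoxicity qHTS with ATP content as read-out: lymphoblastoid cells (2500/well) exposed to compound for 24 h at 37 C, then luciferase luminescence measured. Concentration-response data fitted with the standard Hill equation to give AC50.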

[9] = molecular target: Peroxisome proliferator-activated receptor gamma (Homo sapiens) (UniProt P37231); experiment: qHTS assay for small molecule antagonists of peroxisome proliferator-activated receptor gamma signaling (AID 588537; active = well fitted inhibition curve with a large enough effect in the signal ratio, with a control signal flat, not every such curve was filed as active; inconclusive = small, poorly fitted or top-dose-only effect, or effect the other way, or a change in a side signal; the % refers to the signal ratio;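 note: reporter cells co-stimulated with 50 nM rosiglitazone agonist during compound treatment; % of control where 0% means no effect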); conditions: HEK293 PPARg-UAS-bla, beta-lactamase ratio, antagonist mode; activity, negative = inhibition: at 76.8 µM (top of the series) unless noted
How it was run: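 Compounds are tested as concentration series for inhibition of rosiglitazone-driven (50 nM) reporter expression in GeneBLAzer PPAR-gamma-UAS-bla HEK293 cells. After 16 h at 37 C, CCF4 substrate is added for 2 h at room temperature and blue/green fluorescence is measured.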

[10] = molecular target: Thyroid hormone receptor beta (Homo sapiens) (UniProt P10828); experiment: qHTS assay for small molecule agonists of thyroid hormone receptor beta signaling (AID 588545; calls by dose curve); conditions: TR-UAS-bla GripTite HEK 293, beta-lactamase ratio, agonist mode, 18 h; activation: at 76.7 µM, percent of T3 response, DMSO as zero
How it was run: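 Agonist activity was read as beta-lactamase CCF4 fluorescence (405 ex, 460/530 em), scaled between DMSO (0%) and 10 nM T3 (100%), then Hill-fitted for EC50 and efficacy. HEK 293 TR-UAS-bla cells in 2% charcoal/dextran FBS medium were exposed 18 h at 37 C.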

[11] = qHTS assay to identify small molecules that stimulate interleukin-8 (IL-8) secretion (AID 651758; active = well fitted activation curve with a large enough effect in the signal ratio; inconclusive = small, poorly fitted or top-dose-only effect, or effect the other way, or a change in a side signal; the % refers to the signal ratio; note: potency is the fitted concentration of half-maximal effect; for activation: 0% is about no effect); conditions: HTRF ratio (665/615); activation: at 92.2 µM (top of the series)
How it was run: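 Quantitative HTS in THP-1 monocytic cells at 2000 cells per well, with 16 hrs compound incubation at 37 C. IL-8 in the medium was then quantified by HTRF immunoassay, read after 1-3 hrs at room temperature.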

[12] = Cell Viability - N2a (AID 540); conditions: N2a mouse neuroblastoma cell viability; at 92.2 µM (top of the series);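 note: plate controls were DMSO alone for no effect and tamoxifen control for full effect; nearly all actives have a fitted effect of over 45% in size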
How it was run: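 CellTiter-Glo ATP luminescence, read 20 min after reagent at room temperature, reported viability following 40 h compound treatment at 37 °C. N2a mouse neuroblastoma cells seeded 1500/well; Hill equation gave AC50.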

[13] = Cell Viability - LYMP2-017 (AID 972); conditions: LYMP2-017 lymphoblastoid cell viability; activity change, negative = cytotoxicity: at 92.2 µM (top of the series); note: % is set by controls: 0 for no effect and ±100 for the full control effect; nearly all actives have a fitted effect of over 55% in size
How it was run: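 CellTiter-Glo luminescence (cellular ATP, 30 min RT) measured cytotoxicity after 24 hr compound treatment at 37 C. Cells were a human lymphoblastoid line, LYMP2-017, plated at 2500/well and incubated 5 hr first; concentration-response fitted with Hill equation for AC50.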

[14] = qHTS assay for small molecule agonists of the antioxidant response element (ARE) signaling pathway (AID 651741; active = well fitted activation curve with a large enough effect in the signal ratio; inconclusive = small, poorly fitted or top-dose-only effect, or effect the other way, or a change in a side signal; the % refers to the signal ratio; note: % of control where 0% means no effect); conditions: HepG2 ARE-bla reporter, beta-lactamase FRET ratio, 16 h; activation: at 96 µM (top of the series) unless noted
How it was run: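 Reporter: beta-lactamase under ARE, stably in HepG2. Exposure: 16 h, 37 C, compounds delivered in DMSO by pin tool after 5 h cell preincubation. Readout: FRET substrate fluorescence after 2 h at RT.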

[15] = Cell Viability - H-4-II-E (AID 543);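 note: cells exposed to compound for 40 hours; % is set by controls: 0 for no effect and ±100 for the full control effect; nearly all actives have a fitted effect of over 35% in size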
How it was run: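 CellTiter-Glo luminescence (intracellular ATP) measured after 40 h compound exposure at 37 °C in H-4-II-E rat hepatoma cells seeded at 1500/well. Values are AC50s fitted with the standard Hill equation.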

[16] = Cell Viability - LYMP1-002 - Assay at 16 hr (AID 948); conditions: LYMP1-002 lymphoblastoid cell viability; at 92.2 µM (top of the series);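 note: 0% = DMSO alone and full effect = 92 µM tetraoctylammonium bromide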
How it was run: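 Human lymphoblastoid cells (LYMP1-002), 2500/well, were preincubated 5 hr at 37 C, then exposed to compounds for 16 hr at 37 C in complete medium. Cellular ATP was read by CellTiter-Glo luminescence after 30 min at room temperature; AC50 from Hill fits.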

[17] = Cell Viability - LYMP2-014 (AID 983);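 note: plate controls were DMSO only for no effect and 92 µM tetraoctylammonium bromide for full effect; nearly all actives have a fitted effect of over 50% in size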
How it was run: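 Intracellular ATP loss, read by luciferase luminescence, measures acute cytotoxicity after 24 h compound exposure of lymphoblastoid LYMP2-014 cells (2500/well, 37 C). Concentration-response data fitted to the Hill equation for AC50.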

[18] = molecular target: Androgen receptor (Homo sapiens) (UniProt P10275); experiment: qHTS assay for small molecule antagonists of androgen receptor signaling (AID 588516; active = well fitted curve in the direction sought with a large enough effect in the signal ratio, with a control signal flat, not every such curve was filed as active; inconclusive = small, poorly fitted or top-dose-only effect, or effect the other way, or a change in a side signal; inactive = no such curve, though single readings can be large or run the other way; the % refers to the signal ratio; note: % is set by controls: 0 for no effect and ±100 for the full control effect); conditions: AR-UAS-bla HEK293, beta-lactamase ratio, antagonist mode, 16 h; activity change, negative = inhibition: at 76.8 µM (top of the series)
How it was run: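 Antagonist-mode qHTS: inhibition of R1881 (10 nM)-driven beta-lactamase expression in GripTite HEK 293 cells is measured after 16 h; values are Hill-derived IC50s normalized between R1881 and DMSO wells.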

[19] = molecular target: Glucocorticoid receptor (Homo sapiens) (UniProt P04150); experiment: qHTS assay for small molecule antagonists of glucocorticoid receptor signaling (AID 588533; active = well fitted inhibition curve with a large enough effect in the signal ratio, with a control signal flat, not every such curve was filed as active; inconclusive = small, poorly fitted or top-dose-only effect, or effect the other way, or a change in a side signal; the % refers to the signal ratio;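 note: cells stimulated with 2 nM dexamethasone as agonist; potency is the fitted concentration of half-maximal effect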); conditions: HeLa MMTV-bla, GRE beta-lactamase ratio, antagonist mode, 18 h; activity change, negative = inhibition: at 76.8 µM (top of the series)
[20] = molecular target: Vitamin D3 receptor (Homo sapiens) (UniProt P11473); experiment: qHTS assay for small molecule agonists of vitamin D receptor signaling (AID 588543; calls by dose curve;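 note: 0% = DMSO basal and 100% = reference agonist control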); conditions: HEK293T VDR-UAS-bla, beta-lactamase ratio, 16 h; activation: at 76.8 µM (top of the series)
How it was run: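 GeneBLAzer VDR-UAS-bla HEK293T cells in 2% charcoal-stripped FBS medium were dosed with compound titrations for 16 h at 37 °C; CCF4 β-lactamase readout (405 nm ex, 460/530 nm em). EC50 and efficacy from Hill fits, normalized to 50 nM calcitriol (100%) and DMSO (0%).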

[21] = qHTS assay for small molecule activators of the nuclear factor-kappa B (NF-kB) signaling pathway (AID 651749; active = well fitted activation curve with a large enough effect in the signal ratio; inconclusive = small, poorly fitted or top-dose-only effect, or a change in a side signal; the % refers to the signal ratio; note: potency is the fitted concentration of half-maximal effect); conditions: NF-kB-bla ME-180 cells, beta-lactamase FRET ratio, 16 h; activation: stronger effect = higher value
How it was run: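 Human ME-180 cervical cells with an NF-kB-bla construct; compounds added via 23 nL pin transfer, DMSO as vehicle; incubation 16 hr. Reporter activity measured by FRET disruption.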

[22] = molecular target: Peroxisome proliferator-activated receptor alpha (Homo sapiens) (UniProt Q07869); experiment: qHTS assay for small molecule agonists of the peroxisome proliferator-activated receptor alpha (PPARalpha) signaling pathway (AID 651778); conditions: PathHunter PPARalpha complementation, chemiluminescence, 6 h; max response: stronger effect = higher value; note: % of control where 0% means no effect
How it was run: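 Cells plated at 2,000/well and held overnight at 37 C, 5% CO2, then compound added by pin tool for 6 hr; after PathHunter detection reagent and 60 min at room temperature, chemiluminescence from enzyme complementation was read.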

[23] = molecular target: Nuclear receptor ROR-gamma (Homo sapiens) (UniProt P51449); experiment: qHTS assay for small molecule antagonists of the retinoid-related orphan receptor gamma (ROR-gamma) signaling pathway (AID 651802);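 note: CHO cells with doxycycline-induced ROR-gamma expression; luciferase reporter luminescence driven by ROR response element; % is set by controls: 0 for no effect and ±100 for the full control effect; nearly all actives have a fitted effect of over 60% in size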
How it was run: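 Luminescence (One-Glo, 30 min RT) measured 16 h after compound addition and doxycycline induction at 37C. Reporter: RORE-luciferase under TET-inducible ROR-gamma in CHO cells.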

[24] = qHTS assay for small molecule antagonists of the retinoid-related orphan receptor gamma (ROR-gamma) signaling pathway - cell viability counter screen (AID 720652; active = well fitted curve in the direction sought with a large enough effect in the repeat runs; inconclusive = weak or mixed curves; inactive = no such curve, though single readings can be large; an effect the other way counts as inactive or inconclusive;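 note: CHO reporter cells with doxycycline-induced ROR-gamma expression; compound exposure lasted 16 hr before ATP read; % is set by controls: 0 for no effect and ±100 for the full control effect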)
How it was run: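 Cytotoxicity counter screen: intracellular ATP (CellTiter-Glo luminescence) measured in the doxycycline-induced CHO RORE-luciferase reporter line after 16 hr compound exposure at 37 C, 5% CO2.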
Tags give direction and shape of the fitted curve.

Chain of UniProt P10828 (P10828 whole entry, looked up): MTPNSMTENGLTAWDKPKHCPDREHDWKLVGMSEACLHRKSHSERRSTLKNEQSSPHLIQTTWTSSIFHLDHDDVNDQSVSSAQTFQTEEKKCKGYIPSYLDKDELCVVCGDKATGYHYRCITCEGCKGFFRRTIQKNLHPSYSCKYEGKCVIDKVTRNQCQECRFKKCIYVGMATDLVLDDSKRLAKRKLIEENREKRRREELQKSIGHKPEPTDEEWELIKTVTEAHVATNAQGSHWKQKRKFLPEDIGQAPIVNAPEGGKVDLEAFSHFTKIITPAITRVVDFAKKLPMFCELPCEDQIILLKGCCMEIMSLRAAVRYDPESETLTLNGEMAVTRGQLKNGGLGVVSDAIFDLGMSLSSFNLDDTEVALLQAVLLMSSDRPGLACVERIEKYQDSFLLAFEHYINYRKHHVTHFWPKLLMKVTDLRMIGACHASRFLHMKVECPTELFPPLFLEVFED
Chain of UniProt P11473 (P11473 whole entry, looked up): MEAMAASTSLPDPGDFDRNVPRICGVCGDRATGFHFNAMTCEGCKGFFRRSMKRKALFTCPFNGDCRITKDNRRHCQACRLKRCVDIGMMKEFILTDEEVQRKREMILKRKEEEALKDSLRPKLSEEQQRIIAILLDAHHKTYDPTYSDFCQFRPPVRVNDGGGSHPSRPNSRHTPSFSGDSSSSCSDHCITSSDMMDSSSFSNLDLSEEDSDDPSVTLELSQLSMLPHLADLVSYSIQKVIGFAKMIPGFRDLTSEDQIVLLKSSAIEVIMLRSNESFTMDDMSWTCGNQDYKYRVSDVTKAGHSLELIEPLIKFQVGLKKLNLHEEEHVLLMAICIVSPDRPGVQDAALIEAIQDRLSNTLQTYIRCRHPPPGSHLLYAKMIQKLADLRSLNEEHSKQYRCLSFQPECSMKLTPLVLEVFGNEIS
Chain of UniProt P10275 (P10275 whole entry, looked up): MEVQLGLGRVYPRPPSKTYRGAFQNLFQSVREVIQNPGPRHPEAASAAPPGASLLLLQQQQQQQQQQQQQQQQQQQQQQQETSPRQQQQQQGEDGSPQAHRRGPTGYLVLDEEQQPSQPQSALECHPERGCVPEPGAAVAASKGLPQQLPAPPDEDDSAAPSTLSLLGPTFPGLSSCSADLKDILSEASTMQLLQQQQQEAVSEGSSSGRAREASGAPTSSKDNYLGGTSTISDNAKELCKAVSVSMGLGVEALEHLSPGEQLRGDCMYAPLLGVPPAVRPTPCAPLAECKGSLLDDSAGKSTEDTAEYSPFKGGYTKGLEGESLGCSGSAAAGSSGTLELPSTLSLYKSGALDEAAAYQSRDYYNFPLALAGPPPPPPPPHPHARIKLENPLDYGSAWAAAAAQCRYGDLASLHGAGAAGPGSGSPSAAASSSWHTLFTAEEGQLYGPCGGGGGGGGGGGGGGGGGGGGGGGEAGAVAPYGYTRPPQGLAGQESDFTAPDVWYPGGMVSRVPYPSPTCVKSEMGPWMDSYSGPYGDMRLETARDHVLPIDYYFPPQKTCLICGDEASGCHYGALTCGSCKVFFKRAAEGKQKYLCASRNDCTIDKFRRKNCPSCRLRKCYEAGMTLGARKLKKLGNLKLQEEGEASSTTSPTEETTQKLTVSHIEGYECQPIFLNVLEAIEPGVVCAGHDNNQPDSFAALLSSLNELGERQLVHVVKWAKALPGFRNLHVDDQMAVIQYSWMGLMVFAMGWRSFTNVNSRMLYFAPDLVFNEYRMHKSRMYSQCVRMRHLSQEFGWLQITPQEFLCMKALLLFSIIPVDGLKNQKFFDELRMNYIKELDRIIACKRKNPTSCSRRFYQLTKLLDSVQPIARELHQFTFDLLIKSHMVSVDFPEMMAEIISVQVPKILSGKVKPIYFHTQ
Chain of UniProt P51449 (P51449 whole entry, looked up): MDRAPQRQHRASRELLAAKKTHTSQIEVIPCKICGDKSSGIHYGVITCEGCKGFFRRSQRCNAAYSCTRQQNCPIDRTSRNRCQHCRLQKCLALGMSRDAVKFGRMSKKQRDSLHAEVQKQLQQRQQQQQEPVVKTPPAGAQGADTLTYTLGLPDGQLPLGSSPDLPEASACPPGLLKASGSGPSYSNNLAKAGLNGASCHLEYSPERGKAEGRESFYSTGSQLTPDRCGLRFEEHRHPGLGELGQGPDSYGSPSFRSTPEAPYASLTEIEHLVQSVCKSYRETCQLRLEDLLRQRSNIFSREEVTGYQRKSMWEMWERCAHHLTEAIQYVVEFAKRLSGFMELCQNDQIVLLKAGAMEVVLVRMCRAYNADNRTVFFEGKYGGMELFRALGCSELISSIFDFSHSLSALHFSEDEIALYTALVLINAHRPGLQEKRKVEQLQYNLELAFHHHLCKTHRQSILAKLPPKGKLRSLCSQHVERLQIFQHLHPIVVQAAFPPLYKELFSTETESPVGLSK
Chain of UniProt Q07869 (Q07869 whole entry, looked up): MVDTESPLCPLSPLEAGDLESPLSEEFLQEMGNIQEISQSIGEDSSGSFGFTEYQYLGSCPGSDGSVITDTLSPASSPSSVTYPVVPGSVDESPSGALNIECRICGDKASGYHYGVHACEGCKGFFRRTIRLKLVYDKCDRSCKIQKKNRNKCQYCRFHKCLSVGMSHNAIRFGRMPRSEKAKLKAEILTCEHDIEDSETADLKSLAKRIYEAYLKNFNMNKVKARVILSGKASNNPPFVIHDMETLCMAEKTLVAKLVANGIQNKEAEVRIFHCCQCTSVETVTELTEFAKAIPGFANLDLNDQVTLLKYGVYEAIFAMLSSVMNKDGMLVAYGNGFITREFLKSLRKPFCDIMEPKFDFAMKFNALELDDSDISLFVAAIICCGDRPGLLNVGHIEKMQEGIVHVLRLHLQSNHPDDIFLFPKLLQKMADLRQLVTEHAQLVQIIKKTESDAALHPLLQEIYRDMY
Chain of UniProt P08684 (P08684 whole entry, looked up): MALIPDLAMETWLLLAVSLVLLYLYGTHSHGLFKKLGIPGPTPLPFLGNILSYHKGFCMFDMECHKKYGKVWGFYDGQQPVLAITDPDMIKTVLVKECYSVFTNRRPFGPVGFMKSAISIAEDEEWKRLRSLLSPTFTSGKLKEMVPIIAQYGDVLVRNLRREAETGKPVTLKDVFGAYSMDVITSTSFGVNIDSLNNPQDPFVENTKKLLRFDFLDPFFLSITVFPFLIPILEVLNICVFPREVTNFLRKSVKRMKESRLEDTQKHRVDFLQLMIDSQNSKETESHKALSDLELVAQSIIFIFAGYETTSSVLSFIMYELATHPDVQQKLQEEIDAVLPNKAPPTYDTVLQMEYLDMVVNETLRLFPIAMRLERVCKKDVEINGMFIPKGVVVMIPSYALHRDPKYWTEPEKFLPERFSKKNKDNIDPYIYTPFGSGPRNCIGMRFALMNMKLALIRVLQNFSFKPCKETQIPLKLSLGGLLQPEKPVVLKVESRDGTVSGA

O=[N+]([O-])c1cc([N+](=O)[O-])c2ccc(S(=O)(=O)O)cc2c1O
inactive: activity change, negative = cytotoxicity [1] -0.229% | Potency [3]
inconclusive: Potency [2] 12.6 µM [cytotoxic, partial curve, poor fit]

NC(=O)Nc1nc2ccccc2[nH]1
inactive: viability change, negative = cytotoxic [4] -25.5% | Potency [5] | Potency [8]
inconclusive: activity change, negative = cytotoxicity [1] -42.3% | Potency [6] 31.6 µM [activator, partial curve] | Potency [7] 15.8 µM [cytotoxic, partial curve, poor fit] | activity, negative = inhibition [9] -1.5% | activation [10] -32.2% | Potency [11] 84.1 µM [activator, partial curve, poor fit]

Nc1ccc(S(=O)(=O)O)cc1
inconclusive: activity, negative = inhibition [9] 12.4% and 1.65% | activation [10] -30.3% | activation [14] 0.775%
inactive: activity change, negative = cytotoxicity [12] -1.94% | Potency [13]

CC(=O)C1(C)CC2=C(CCCC2(C)C)CC1C (configuration not stated)
inconclusive: activity change, negative = inhibition [18] -44.9% | Potency [19] 44.7 µM [activator, single point] | activity, negative = inhibition [9] 14.5% | activation [10] -30.7% | Potency [21] 0.0007 µM [side channel, rising, full curve, poor fit] | activation [11] 6.52%
inactive: Potency [15] | activity change, negative = cytotoxicity [16] -2.53% | Potency [7] | Potency [17] | Potency [20] | Potency [14] | max response [22] -0.376% | Potency [23] | Potency [24]
